Measurements from US20250222125A1, “Anti-FGFR2b Antibodies, Conjugates and Methods of Use” (BeiGene, Ltd., priority 2024, published 2025).

Test: Corneal dystrophy / corneal thickness in HSC-39 tumor-bearing mice
Conditions: i.v.; BGA3457 10 mg/kg Q2W×2, BGA1421 10 mg/kg BIW×8; H&E
Description: HSC-39 cells were inoculated in the right flank by subcutaneous injection of 5.0×10^6 cells with matrigel (1:1 v/v ratio). Tumor volume was calculated using the formula: V=0.5×(a×b^2) where a and b are the long and short diameters of the tumor, respectively. When tumor volume reached approximately 200 mm^3 in size, mice were randomized into each group. Animals were intravenously administered vehicle, BGA3457 (10 mg/kg, Q2W×2), or BGA1421 (10 mg/kg, BIW×8). At the endpoint, mice were euthanized using carbon dioxide and eyes were collected and fixed in Davidson solution (95% ethanol/formaldehyde/acetic acid/distilled water: 30 mL/20 mL/10 mL/20 mL), then transferred into 75% ethanol 24 hours later. Corneal abnormalities were analyzed by H&E staining. Mouse corneal thickness was measured by Imagescope software (Leica Biosystems). The differences between the mean values of data for comparing groups were analyzed for significance using appropriate analysis by GraphPad Prism (GraphPad Software, Inc.). p<0.05 is considered to be statistically significant.

In the case of “BGA1421: comparator antibody bemarituzumab, un-conjugated; HC SEQ ID NO: 35, LC SEQ ID NO: 36 [reference compound]”, the “corneal thickness compared to vehicle” value is reported as “significantly thinned the cornea”.
